From the supplement of paper PMC6135742
Structures can show the parent of a compound that is named as a salt. ± gives the standard deviation of the averaged measurements. In all, about 2,600 compounds were measured (“MBP+ mature oligodendrocyte number relative to DMSO vehicle control”: median about -0.34, highest 2% from about 13 on). This is one part of the list.

The compounds below were run on jimpy (Plp1 jimpy) mouse iPSC-derived oligodendrocyte progenitor cells (assay: MBP+ mature oligodendrocyte number relative to DMSO vehicle control (SDs above negative control mean); higher = more surviving jimpy oligodendrocytes (rescue)). Conditions: 10 µM; 3 days.
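Also: 10 µM single dose with 3-day oligodendrocyte differentiation.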

SMILES | MBP+ mature oligodendrocyte number
Nc1ncnc2c1c(-c1cnc3[nH]ccc3c1)nn2C1CCCC1 | < -6.01
COc1cc(OC)cc(-c2cc3cnc(N)nc3nc2NC(=O)NC(C)(C)C)c1 | -2.43
COc1ccc2cc1Oc1ccc(cc1)C[C@H]1c3cc(c(OC)cc3CCN1C)Oc1c(OC)c(OC)cc3c1[C@H](C2)N(C)CC3 [Tetrandrine] | < -4.81
CC(=O)OCC(=O)[C@@]12N=C(C)O[C@@H]1C[C@H]1[C@@H]3CCC4=CC(=O)C=C[C@]4(C)[C@H]3[C@@H](O)C[C@@]12C [Deflazacort] | 5.29
N=C(N)NCCC[C@H](N)C(=O)O [L-Arginine] | -1.06
Cc1nc2n(c(=O)c1CCN1CCC(c3noc4cc(F)ccc34)CC1)CCCC2 [Risperidone] | -0.287
CNCCC(Oc1ccc(C(F)(F)F)cc1)c1ccccc1 (configuration not stated) [Fluoxetine HCl] | < -6.7
CNCCC(Oc1ccc(C(F)(F)F)cc1)c1ccccc1 (configuration not stated) [Fluoxetine hydrochloride] | < -4.47
C[C@@H](CN1CC(=O)NC(=O)C1)N1CC(=O)NC(=O)C1 [Dexrazoxane HCl (ICRF-187, ADR-529)] | -3.56
CCC(=O)O[C@]1(C(=O)CCl)[C@@H](C)C[C@H]2[C@@H]3C[C@H](F)C4=CC(=O)C=C[C@]4(C)[C@@]3(F)[C@@H](O)C[C@@]21C [Halobetasol Propionate] | 21.4
CC(=O)N[C@H]1[C@H]([C@H](O)[C@H](O)CO)OC(C(=O)O)=C[C@@H]1NC(=N)N [Zanamivir] | 0.985 ± 1.6
CCN1CC(CCN2CCOCC2)C(c2ccccc2)(c2ccccc2)C1=O (configuration not stated) [Doxapram HCl] | 5.14
CN(C)Cc1cccc(N/C(=C2\C(=O)Nc3cc(C(N)=O)ccc32)c2ccccc2)c1 | -5.06
CCCCNC(=O)NS(=O)(=O)c1ccc(C)cc1 [Tolbutamide] | 0.39 ± 0.24
C[C@@H]1O[C@@H](O[C@H]2[C@H](Oc3cc(O)c(C(=O)CCc4ccc(O)cc4)c(O)c3)O[C@H](CO)[C@@H](O)[C@@H]2O)[C@H](O)[C@H](O)[C@H]1O [Naringin Dihydrochalcone] | 0.451
CCOC(=O)OC(C)OC1=C(C(=O)Nc2ccccn2)N(C)S(=O)(=O)c2ccccc21 (configuration not stated) [Ampiroxicam] | -1.09
O=C(Nc1c(Cl)cncc1Cl)c1ccc(OC(F)F)c(OCC2CC2)c1 [Roflumilast] | 0.395
CCCS(=O)(=O)Nc1ccc(F)c(C(=O)c2c[nH]c3ncc(-c4ccc(Cl)cc4)cc23)c1F [Vemurafenib (PLX4032, RG7204)] | 8.05
CCCCCCCCCCC/C=C\C(C)(C)/C=C\CCCC(=O)O [7,7-Dimethyl-(5Z,8Z)-eicosadienoic acid] | -0.962
O=S(=O)(O)CCS [Mesna] | -1.1
CN(C)C1CCN(C(=O)c2ccc(NC(=O)Nc3ccc(-c4nc(N5CCOCC5)nc(N5CCOCC5)n4)cc3)cc2)CC1 | < -6.01
C[C@H](c1ccc(F)cc1CCCC(=O)O)N(c1cc(F)ccc1F)S(=O)(=O)c1ccc(Cl)cc1 | -0.961
CC(=O)OCC[N+](C)(C)C [Acetylcholine Chloride] | 1.51
CC1(C)CCC2=C(O1)c1ccccc1C(=O)C2=O [beta-Lapachone] | < -3.97
CC1(C)CCC2=C(O1)c1ccccc1C(=O)C2=O [Beta-Lapachone] | -6.18
OCCN1C[C@H](O)[C@@H](O)[C@H](O)[C@H]1CO [Miglitol] | -0.332

SMILES | MBP+ mature oligodendrocyte number
S=C(NCc1ccc2c(c1)OCO2)N1CCN(c2ncnc3c2oc2ccccc23)CC1 [Amuvatinib (MP-470)] | < -6.7
CC(=O)Oc1cc2c(s1)CCN(C(C(=O)C1CC1)c1ccccc1F)C2 (configuration not stated) [Prasugrel] | 2.81
Cn1cnc([N+](=O)[O-])c1Sc1ncnc2[nH]cnc12 [Azathioprine] | -1.9 ± 1.3
CC(C)C(=O)Nc1ccc([N+](=O)[O-])c(C(F)(F)F)c1 [Flutamide] | 2.04 ± 0.024
O=C(O)CCCC[C@@H]1SC[C@@H]2NC(=O)N[C@@H]21 [Biotin (Vitamin B7)] | 2.17
CCOC(=O)Nc1ccc(NCc2ccc(F)cc2)nc1N [Flupirtine maleate] | 4.11 ± 3.1
CC1COc2c(N3CCN(C)CC3)c(F)cc3c(=O)c(C(=O)O)cn1c23 (configuration not stated) [Ofloxacin] | 0.539
O=C(O)/C=C/c1cnc[nH]1 [4-Imidazoleacrylic acid] | 0.896
C[C@H](CCC(=O)O)[C@H]1CC[C@H]2[C@@H]3CC[C@@H]4C[C@H](O)CC[C@]4(C)[C@H]3CC[C@]12C [Lithocholic acid] | 0.422
CC(=O)SCC(Cc1ccccc1)C(=O)NCC(=O)OCc1ccccc1 (configuration not stated) [Racecadotril] | 0.787
COC(=O)C1=C(C)NC(C)=C(C(=O)OC(C)C)C1c1cccc2nonc12 (configuration not stated) [Isradipine] | 6.28
Cn1c(Nc2ccc(C(F)(F)F)cc2)nc2cc(Oc3ccnc(-c4ncc(C(F)(F)F)[nH]4)c3)ccc21 | -4.47
CCOC(=O)[C@H](CCc1ccccc1)N[C@@H](C)C(=O)N1Cc2cc(OC)c(OC)cc2C[C@H]1C(=O)O [Moexipril HCl] | -1.55
C/C=C1\[C@H]2C=C(C)C[C@]1(N)c1ccc(=O)[nH]c1C2 [(-)-Huperzine A (HupA)] | 0.619
CN1CCN(C2CCN(C(=O)Nc3cc(Oc4ccc(NC(=O)C5(C(=O)Nc6ccc(F)cc6)CC5)c(F)c4)ccn3)CC2)CC1 [Golvatinib (E7050)] | < -6.01
C[N+](C)(C)CCO.[Cl-] [Choline Chloride] | 2.94
Nc1ccc2c3c(cccc13)C(=O)NC2=O [4-Amino-1,8-naphthalimide] | -0.511
Clc1ccc(Nc2nnc(Cc3ccncc3)c3ccccc23)cc1 [Vatalanib (PTK787) 2HCl] | -5.48
Cn1cc(-c2ccc3nnc(Sc4ccc5ncccc5c4)n3n2)cn1 | -0.676
O=C1NC(=O)/C(=C/c2cccc(C(F)(F)F)c2)S1 | 1.05
Cc1cc(O)c2c(c1)C(=O)c1cc(O)cc(O)c1C2=O [Emodin] | 1.76 ± 0.45
CN(C/C=C/C#CC(C)(C)C)Cc1cccc2ccccc12 [Terbinafine HCl] | 4.54
CN(C/C=C/C#CC(C)(C)C)Cc1cccc2ccccc12 [Terbinafine] | 1.87
O=c1[nH]cnc2c1ncn2[C@H]1CC[C@@H](CO)O1 [Didanosine] | 0.793
Fc1ccc([C@@H]2CCNC[C@H]2COc2ccc3c(c2)OCO3)cc1 [Paroxetine HCl] | -5.77
Fc1ccc([C@@H]2CCNC[C@H]2COc2ccc3c(c2)OCO3)cc1 [Paroxetine hydrochloride hemihydrate (MW = 374.83)] | < -3.34

SMILES | MBP+ mature oligodendrocyte number
Nc1nc(O)c2ncn(CCC(CO)CO)c2n1 [Penciclovir] | 3.36
NC(CO)C(=O)NNCc1ccc(O)c(O)c1O (configuration not stated) [Benserazide hydrochloride] | 0.392
NC(CO)C(=O)NNCc1ccc(O)c(O)c1O (configuration not stated) [Benserazide HCl] | 0.395
CN(C)CCCN1c2ccccc2CCc2ccccc21 [Imipramine hydrochloride] | -1.73
C[C@H]1COc2c(N3CCN(C)CC3)c(F)cc3c(=O)c(C(=O)O)cn1c23 [Levofloxacin] | 3.76
CCCC(=O)OCOC(=O)C1=C(C)NC(C)=C(C(=O)OC)C1c1cccc(Cl)c1Cl (configuration not stated) [Clevidipine Butyrate] | -0.737
CC(C)CN(C[C@@H](O)[C@H](Cc1ccccc1)NC(=O)O[C@H]1CO[C@H]2OCC[C@H]21)S(=O)(=O)c1ccc(N)cc1 [Darunavir Ethanolate] | 2.59
O=C(O)CSCC(=O)NC1CCSC1=O (configuration not stated) [Erdosteine] | 1.6
Cc1cc2c(F)c(Oc3ncnn4cc(OC[C@@H](C)O)c(C)c34)ccc2[nH]1 | -1.37
O=C1C(SCCO)=C(SCCO)C(=O)c2ccccc21 | -1.17
COc1cc(/C=C/C(=O)CC(=O)/C=C/c2ccc(O)c(OC)c2)ccc1O [Curcumin] | -5.06
Cc1nc2n(c(=O)c1CCN1CCC(c3noc4cc(F)ccc34)CC1)CCCC2O (configuration not stated) [Paliperidone] | 0.555
CC(=O)OCC1=C(C(=O)O)N2C(=O)[C@@H](NC(=O)Cc3cccs3)[C@H]2SC1 [Cephalothin sodium] | -0.119
C=CCn1c(=O)c2cnc(Nc3ccc(N4CCN(C)CC4)cc3)nc2n1-c1cccc(C(C)(C)O)n1 | < -5.15
Clc1ccc(C(Cn2ccnc2)OCc2csc3c(Cl)cccc23)c(Cl)c1 (configuration not stated) [Sertaconazole nitrate] | -3.39
O=C(Nc1cccc2cccnc12)c1ccc(N2C(=O)[C@@H]3[C@H](C2=O)[C@@H]2C=C[C@H]3C2)cc1 [IWR-1-endo] | -3.56
CC1(C)S[C@@H]2[C@H](NC(=O)Cc3ccccc3)C(=O)N2[C@H]1C(=O)O [Penicillin G Sodium] | 1.67
CCCCc1nc(Cl)c(CO)n1Cc1ccc(-c2ccccc2-c2nnn[nH]2)cc1 [Losartan Potassium (DuP 753)] | 1.59
c1cn2cc(-c3ccc4cn[nH]c4c3)nc(Nc3ccc(N4CCOCC4)cc3)c2n1 | -1.1
O=C1OC(CN2CCOCC2)CN1/N=C/c1ccc([N+](=O)[O-])o1 (configuration not stated) [Furaltadone HCl] | -1.2
O=C1c2c(O)cc(O)cc2O[C@H](c2cc(O)c(O)c(O)c2)[C@H]1O [Dihydromyricetin] | 1.91
Cc1ccc(-c2c(-c3nn(C)c4ncnc(N5CC[C@H](N6CCCCC6)C5)c34)cnn2C)cc1 | 0.342
CNCCCN1c2ccccc2CCc2ccccc21 [Desipramine hydrochloride] | -4.21
CCOc1cc(N)c(Cl)cc1C(=O)NCC1CN(Cc2ccc(F)cc2)CCO1 (configuration not stated) [Mosapride Citrate] | 23
Cc1cccc(Nc2ccccc2C(=O)O)c1C [Mefenamic Acid] | 0.407
